Experimental data as given in PubChem BioAssay AID1963576 (National Center for Advancing Translational Sciences (NCATS), 2024).
Hit rate of the full screen: of about 46,000 compounds, about 60 (0.1%) were called active. About 3% were inconclusive and are not listed. Calls come from the whole dose curve; as a rule, active = well fitted inhibition curve with a large enough effect; inconclusive = small, poorly fitted or top-dose-only effect; inactive = no such curve, though single readings can be large or run the other way. The list shows a part of the results.

assay: Primary qHTS assay for Inhibitors of ovarian cancer metastasis using an organotypic tumor microenvironment (TME) model.; note: nearly all actives have a fitted effect of over 65% in size;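 for activity change, negative = inhibition: plate controls were DMSO wells for no effect and tomatine positive control wells for full effect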; details: SKOV3ip1-GFP adhesion/invasion on 3D omental model, fluorescence; series mostly up to 45.8 µM; activity change, negative = inhibition: at the top concentration
Summary of the method: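 Primary human omental fibroblast/mesothelial 3D culture pre-formed 48 h. SKOV3ip1-GFP cells added with compounds (0.36-46 umol/L), incubated 2 h RT/16 h 37 C, fixed; GFP cells quantified at 488/509 nm.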

| SMILES | activity change, negative = inhibition | outcome |
| --- | --- | --- |
| CC1CCN(c2nc3c(S(=O)(=O)c4cccc(Cl)c4)nnn3c3ccsc23)CC1 | inactive: -2.02% | – |
| Cc1ccc(N2CCN(C(=O)CCS(=O)(=O)c3cc4c(cc3Cl)NC(=O)CO4)CC2)c(C)c1 | inactive: 10.4% | – |
| Cc1ccc(C2C(=O)N(C3CCCCCC3)CC(=O)N2CCC2=CCCCC2)cc1 (stereo not given) | inactive: -2.36% | – |
| CCCCNc1nc2c(-c3cccc(Br)c3)nnn2c2ccccc12 | – | inactive |
| COc1ccc(CNS(=O)(=O)c2csc(C(N)=O)c2)cc1OC | – | inactive |
| COc1ccc(C2=Nc3ccccc3N(CC(=O)Nc3cccc(C(C)=O)c3)C(=O)C2)cc1 | inactive: -1.87% | – |
| Cc1cn2c(=O)cc(COC(=O)c3ccc(NC(=O)c4ccc(C(C)(C)C)cc4)cc3)nc2s1 | – | inactive |
| CCOC(=O)c1ccc(NC(=O)C(CC)Sc2nncn3c2cc2oc(C)cc23)cc1 (stereo not given) | inactive: 5.87% | – |
| Cn1nnnc1SCCCNCc1cc(Cl)ccc1OCc1ccccc1 | inactive: -27% | – |
| O=C1Nc2c(c(=O)[nH]c(=O)n2-c2ccc(F)cc2)C1(NS(=O)(=O)c1ccc(Cl)cc1)C(F)(F)F (stereo not given) | inactive: 13.6% | – |
| COc1ccc(OCCCn2c(C)nc3cc(C)c(C)cc32)cc1 | inactive: 2.49% | – |
| COc1cccc2c1cc1c(=O)n(CC(=O)NCCCN3CCN(C)CC3)nc(C)n12 | inactive: 5.94% | – |
| CCC1=C(c2ccc(C)cc2)S(=O)(=O)N=C1N1CCC(C(=O)NCCc2cccc(OC)c2)CC1 | inactive: -4.97% | – |
| CC(=O)N1CCc2c(sc3c2c(=O)n(-c2ccccc2)c(=O)n3CC(=O)c2ccc(F)cc2)C1 | inactive: 17.9% | – |
| CCc1ccc(NC(=O)C2CCCN2S(=O)(=O)c2cccc3nsnc23)cc1 (stereo not given) | inactive: -9.16% | – |
| COc1cc(C(=O)Nc2nnc(CC(C)(C)C)s2)cc(OC)c1OC | inactive: 1.83% | – |
| Cc1cn2c(=O)c(S(=O)(=O)NCCc3ccc(Cl)cc3)c(C)nc2s1 | inactive: 6.41% | – |
| CC(C)c1nn2c(=O)cc(COC(=O)c3ccc4c(c3)OCO4)nc2s1 | inactive: 1.64% | – |
| COC(=O)c1ccc(OCC2c3cc(OC)c(OC)cc3CCN2C(=O)Cc2ccc(OC)c(OC)c2)cc1 (stereo not given) | – | inactive |
| CCN(CC)CCNC(=O)Cn1cnc2sc(C)c(S(=O)(=O)N3CCC(C)CC3)c2c1=O | inactive: 16.4% | – |
| COc1ccc(NC(=O)Cc2ccc(NC(=O)N3CCCCc4ccccc43)cc2)c(OC)c1 | inactive: 1.91% | – |
| CC(C)c1ccc(NC(=O)c2cc(S(=O)(=O)NCCC3=CCCCC3)ccc2F)cc1 | inactive: -38.5% | – |
| CCOC(=O)C1CCC(CN(Cc2ccc(OC)cc2)S(=O)(=O)c2ccc(F)c(C(=O)Nc3cc(Cl)ccc3OC)c2)CC1 (stereo not given) | inactive: 2.78% | – |
| Cn1cc(-c2cc3n(n2)CCC(=O)N3CCCC(=O)NCc2ccccc2)c2ccccc21 | inactive: -3.62% | – |
| COc1ccc(CNC(=O)CN(C)S(=O)(=O)c2ccc3[nH]c4c(c3c2)CCCC4)cc1 | inactive: -7.64% | – |
